In the RNAGym collection of RNA variant scans (doi:10.7554/elife.90254) one finds self-cleavage data, which are given here for 167 variants.

Read counts are not given, so values of variants with three or more changes are uncertain.

Sequences and labels used below:
B1: LINE1-mini (parent)
chain: GGCAGAGCUCAACACAGCGUGGCAAAGUGGCUGUGGCUAGACUGCC

The variants in the data set derive from B1. Briefly: self-cleavage, relative activity (ratio to wild type); higher = more cleavage; in vitro, sequencing; the parent is a self-cleaving ribozyme.
In the case of G1C A6C A25G G30U C37U, the self-cleavage was 0.

As to G1A C13U G29U G30A U43A, the self-cleavage came out at 0.03.

Turning to G1C A16G U20C G35U, the self-cleavage was 0.01.

Turning to G1A G2C G19C G22C U28C, the self-cleavage was determined as 0.03.

Turning to G1C A14G G30C, the self-cleavage amounted to 0.02.

In the case of G1C A12C G17A A24U, the self-cleavage came to 0.02.

As to G1A C10A G30U, the self-cleavage came to 0.06.

Take G1A G5A G7U G17U C18G: the self-cleavage amounted to 0.18.

For the variant G1A A4G G33A, the self-cleavage was 0.04.

Take G1A G7C C37G: the self-cleavage was 0.1.

Take G1A G7A U28G G29C G44A: the self-cleavage was 0.11.

Turning to G1A G5U G33U, the self-cleavage came out at 0.04.

On to G1C A4C G21C G33U C37G, for which the self-cleavage was determined as 0.02.

As to G1A C3G C10U, the self-cleavage is 0.26.

For the variant G1A A4C A41C, the self-cleavage stood at 0.12.

Take G1A A14G A25C: the self-cleavage was 0.2.

On to G1A A4G C18U G22U G30C C46A, for which the self-cleavage amounted to 0.26.

Regarding G1A A4G G29A G30C G35A, the self-cleavage is 0.

With G1A C10U G40C, the self-cleavage came out at 0.03.

Take G1C A14U U20A C23U: the self-cleavage stood at 0.03.

In the case of G1A C23G G27C U28G U34A, the self-cleavage was found to be 0.09.

Regarding G1A G7C A14C G17U, the self-cleavage came to 1.1.

For G1A C23U U38A, the self-cleavage was 2.37.

As for G1A G2A G35C, the self-cleavage was determined as 1.62.

On to G1A C8G U28C G36C, for which the self-cleavage is 0.05.

Consider G1A A6C G7A G22U U34A G44U, for which the self-cleavage stood at 0.07.

Take G1C C3G C37A: the self-cleavage is 0.24.

With G1A U28G G36A, the self-cleavage is 0.06.

In the case of G1C A4U G7U G21U C31U U34C, the self-cleavage was 0.03.

In the case of G1A A11G C13U G29C G35A A39G C45U, the self-cleavage is 0.06.

In the case of G1A C10U C18A C31A, the self-cleavage worked out at 0.08.

For G1A A6G C10G U32C G35U, the self-cleavage is 0.

G1A A11G C37G: the self-cleavage was determined as 0.01.

As to G1A A11G C37U, the self-cleavage stood at 0.01.

On to G1A U20A G30A A41G, for which the self-cleavage was found to be 0.

For the variant G1C A6U A25C, the self-cleavage amounted to 0.08.

Consider G1C A4U G27U C46G, for which the self-cleavage turned out to be 0.09.

G1A G33U U38A: the self-cleavage turned out to be 0.05.

On to G1A C13A A16U, for which the self-cleavage worked out at 0.06.

For G1A G5A A12C C13G G19C G22U, the self-cleavage was found to be 0.02.

Consider G1A C15G A24G, for which the self-cleavage was 0.04.

G1A A11G G19A A39C A41G: the self-cleavage turned out to be 0.11.

With G1C A4G G7C A16C C45A, the self-cleavage is 0.06.

For the variant G1A A16U C18G U20A U28G G29A A41G C42G C46A, the self-cleavage turned out to be 0.02.

For G1A A6C U9A G17C U32A, the self-cleavage came to 0.11.

In the case of G1A A4G G33C G35U, the self-cleavage came out at 0.07.

With G1A C13G A14C G27U G33A, the self-cleavage came out at 0.04.

Turning to G1A A6C C8A A26U, the self-cleavage amounted to 0.4.

Regarding G1A U9G C13A A14C, the self-cleavage stood at 0.05.

On to G1C C3A G5A G17C A39G, for which the self-cleavage came to 0.07.

For the variant G1C A4G A12G U20G A26C C37A U43A, the self-cleavage came to 0.

Consider G1C C3A C15A, for which the self-cleavage was 0.06.

Take G1A A6U A16U G33U G36A C37A: the self-cleavage turned out to be 0.06.

Take G1C A25G C42A G44A: the self-cleavage came to 0.01.

Consider G1A G19U G30A G40U, for which the self-cleavage stood at 0.1.

Turning to G1A C10A A14U C46A, the self-cleavage is 0.08.

Turning to G1A A4G G44U, the self-cleavage was 0.09.

Turning to G1A C8U C31U, the self-cleavage amounted to 0.38.

Turning to G1A G2U G17U G22A, the self-cleavage turned out to be 0.04.

In the case of G1A G2C A26C, the self-cleavage turned out to be 0.32.

In the case of G1A C8A U20C G21C, the self-cleavage stood at 0.18.

For the variant G1A U9G G17U G19A G22A A26G, the self-cleavage was found to be 0.02.

G1A G2A G5C G7U G40C: the self-cleavage was 0.94.

On to G1A C8U U38A A41G, for which the self-cleavage turned out to be 0.64.

Regarding G1A G2A C18A G30A, the self-cleavage turned out to be 0.52.

As to G1A C23U G44U C46G, the self-cleavage came to 0.06.

G1C A6U G17A C23U: the self-cleavage came out at 0.04.

Regarding G1A G2C A14U A16G C46A, the self-cleavage came to 0.06.

In the case of G1A C3A G5U C13U, the self-cleavage was 2.66.

For the variant G1A A11G G33C, the self-cleavage was 0.04.

Regarding G1A G17C G35C C45A, the self-cleavage was 0.02.

With G1C A14U C45U, the self-cleavage is 0.04.

For the variant G1A G2U A6C A11U G17A A26G A39C U43C C45A, the self-cleavage was 0.01.

On to G1C C3G G36C G44A, for which the self-cleavage came out at 0.24.

As for G1A G2C G19A U32G G36U, the self-cleavage amounted to 0.02.

In the case of G1A C8G A12G C23U, the self-cleavage came out at 0.19.

In the case of G1C A11U G33U, the self-cleavage stood at 0.01.

As for G1C A6C C10G U20C A26G, the self-cleavage amounted to 0.01.

Regarding G1A U43A C45A C46U, the self-cleavage was 0.02.

Turning to G1A C10A C18A, the self-cleavage is 0.12.

As for G1C A12U C13G G19A C23A C46U, the self-cleavage came to 0.05.

In the case of G1A C3A A4G, the self-cleavage amounted to 0.87.

As to G1A A4U U32G U34A, the self-cleavage was found to be 0.1.

G1A G2U A6U C13U A24G G40U: the self-cleavage is 0.05.

Consider G1C C3G U9A A25U G27U, for which the self-cleavage is 0.04.

Take G1A A6C U28C: the self-cleavage stood at 0.28.

For the variant G1A A14U G21U G33U A41U, the self-cleavage was 0.19.

G1A G2C A6C U20G U32G C45G: the self-cleavage worked out at 0.02.

For G1A G5A A26G, the self-cleavage came out at 0.15.

For G1A C15G A16C G19U A41G, the self-cleavage was determined as 0.01.

Regarding G1A U9A G17A U28C U38A C45G C46U, the self-cleavage turned out to be 0.45.

Regarding G1A A11G G17C A24U G30U, the self-cleavage came to 0.02.

As for G1A U28A A39C, the self-cleavage stood at 0.06.

As to G1A A4G A14U G30U, the self-cleavage stood at 0.08.

On to G1C A39U C46U, for which the self-cleavage worked out at 0.06.

As for G1A U9A A14G G44A, the self-cleavage was determined as 0.32.

G1C A11C G30C: the self-cleavage amounted to 0.01.

Take G1C A24G U34C A39G: the self-cleavage came to 0.

G1A A4U G7C C8G G21U C31U: the self-cleavage was 0.14.

Regarding G1A U9A G17C C18U, the self-cleavage turned out to be 0.15.

In the case of G1A G7C G27A, the self-cleavage was determined as 0.37.

Take G1A G7C G33U: the self-cleavage amounted to 0.31.

For G1C A11U G19C G30A C31G, the self-cleavage stood at 0.02.

As for G1A A6G C31U A41G C42G, the self-cleavage was 0.02.

On to G1A A11G A25C A26C G27U, for which the self-cleavage is 0.03.

In the case of G1C A41C C42U U43C, the self-cleavage amounted to 0.03.

On to G1A C31U U32G U43A, for which the self-cleavage is 0.02.

In the case of G1A C3G C10U G27C, the self-cleavage was found to be 0.1.

Consider G1A C10A G33U U34A U38A, for which the self-cleavage is 0.04.

Take G1A C10A C13G A24C A25U: the self-cleavage turned out to be 0.06.

In the case of G1A A4G A41U, the self-cleavage was determined as 0.05.

On to G1A G5U A12C G36U, for which the self-cleavage was 0.03.

Take G1C A4C C45U: the self-cleavage was determined as 0.01.

For G1C A11G C13A A14U C15A U34A G35C G36U, the self-cleavage was 0.01.

For the variant G1A C18A C45U, the self-cleavage was found to be 0.35.

With G1C A4G A16U, the self-cleavage came to 0.01.

For G1A C13U G30U, the self-cleavage turned out to be 0.06.

As for G1A G19U G22A A24G, the self-cleavage worked out at 0.27.

With G1A U9C G27A, the self-cleavage worked out at 0.08.

For G1C A24C A26C, the self-cleavage was 0.02.

G1A C23U A25C A26G: the self-cleavage came to 1.57.

For G1A A14U G19U G22U A26G U38G, the self-cleavage was 0.04.

As to G1A A4C U9A G17C, the self-cleavage was 0.07.

With G1A C3U U9G, the self-cleavage came out at 0.92.

Regarding G1A G2C C8U A14U C18G G30U G35C, the self-cleavage is 0.01.

For G1C A4U A6C G22A G33A, the self-cleavage amounted to 0.03.

For G1A C18G U28A G33U, the self-cleavage was 0.03.

On to G1A C10A G30C C42G, for which the self-cleavage was determined as 0.03.

Regarding G1A C18A G19C G36C, the self-cleavage is 0.04.

In the case of G1A C10G A11C, the self-cleavage was found to be 0.02.

For G1A G2C G5U C31U, the self-cleavage was 0.03.

For G1C A4U C13G G17U A25G U34A C37A A41C, the self-cleavage worked out at 0.02.

As to G1A G5U C18U, the self-cleavage turned out to be 0.09.

Turning to G1C A4U G30U A41G C46A, the self-cleavage amounted to 0.02.

For the variant G1C A26G U34A G35C, the self-cleavage was found to be 0.

Regarding G1C C3G A6C C8G C15U G17A G21U U32G G33U, the self-cleavage was 0.09.

For G1C C3G A4C G33U, the self-cleavage worked out at 0.06.

As for G1A C31A U34C U38C U43A, the self-cleavage was determined as 0.02.

For G1A A6G C18A A25U, the self-cleavage turned out to be 0.03.

Consider G1A G5C G17U G33C, for which the self-cleavage came to 0.06.

With G1A C3U C13A G21A U34A C46G, the self-cleavage stood at 1.37.

On to G1A U9C G29C C45A, for which the self-cleavage was determined as 0.06.

Consider G1C C3A G22U G30C, for which the self-cleavage worked out at 0.07.

For the variant G1A C15U U34C, the self-cleavage worked out at 0.14.

For G1A C10A A26U C31G, the self-cleavage stood at 0.04.

With G1A C31A C42G, the self-cleavage was 0.03.

On to G1A C13A A25U U34C G36A C46U, for which the self-cleavage came out at 0.02.

As for G1C A4C G29U, the self-cleavage was found to be 0.09.

Take G1A G30U G44C: the self-cleavage stood at 0.12.

In the case of G1C A14G C23A G40A, the self-cleavage worked out at 0.03.

Consider G1A G2U A6G A39G, for which the self-cleavage worked out at 0.02.

Consider G1A G7U C8A, for which the self-cleavage was 1.95.

For the variant G1A A4G G7A G33C, the self-cleavage turned out to be 0.28.

In the case of G1A U20C A26U C45A, the self-cleavage was 1.41.

For the variant G1A A16G C31G A39G C46G, the self-cleavage is 0.01.

In the case of G1A A11U C13A C15U A16C G30A, the self-cleavage amounted to 0.03.

For the variant G1A G33C G40U A41C U43C, the self-cleavage was determined as 0.04.

With G1A C13A G27U U34C G40U, the self-cleavage came to 0.01.

In the case of G1A C8A G17C U38G, the self-cleavage is 0.05.

G1A G5U G7A G29U: the self-cleavage came out at 0.

For the variant G1A A12G G35A, the self-cleavage amounted to 0.04.

On to G1C A26C G27U U32G, for which the self-cleavage was 0.

With G1C A12G G29A A41C, the self-cleavage worked out at 0.

As for G1C A14U G19C U38G A39G, the self-cleavage was determined as 0.

On to G1A A11U G27A G29U G35A, for which the self-cleavage is 0.01.

For the variant G1A C8G A12G G21U G36U, the self-cleavage was found to be 0.06.

In the case of G1A C23A G33C A39G A41U, the self-cleavage was 0.03.
